From the supplement of paper PMC8728848
The list shows a part of the results.

Tests used:
Assay in all cases: glycan array binding signal (z-score within array); higher = stronger binding
Conditions in all cases: glycan notation: IUPAC condensed, linker removed
[1] = target: Man(a1-2)Man(a1-3)[Man(a1-2)Man(a1-6)]Man
Summary of the method: (§1)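 Negative Z-scores can be read as non-binding. The Z-score is calculated within each array and then averaged across arrays of one protein sequence at different concentrations or buffers and across linkers. Arrays, 3228 in all, were curated from the Consortium for Functional Glycomics database and kept only where the protein sequence was available.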

[2] = target: Man(a1-2)Man(a1-3)[Man(a1-2)Man(a1-6)]Man(a1-6)[Man(a1-2)Man(a1-2)Man(a1-3)]Man
Summary of the method: as §1

[3] = target: Man(a1-2)Man(a1-3)[Man(a1-2)Man(a1-6)]Man(a1-6)[Man(a1-2)Man(a1-2)Man(a1-3)]Man(b1-4)GlcNAc(b1-4)GlcNAc
Summary of the method: as §1

[4] = target: Man(a1-2)Man(a1-3)[Man(a1-6)]Man(a1-6)[Man(a1-2)Man(a1-3)]Man(b1-4)GlcNAc(b1-4)GlcNAc
Summary of the method: as §1

[5] = target: Man(a1-2)Man(a1-6)[Man(a1-3)]Man(a1-6)[Man(a1-2)Man(a1-2)Man(a1-3)]Man
Summary of the method: as §1

[6] = target: Man(a1-2)Man(a1-6)[Man(a1-3)]Man(a1-6)[Man(a1-2)Man(a1-2)Man(a1-3)]Man(b1-4)GlcNAc(b1-4)GlcNAc
Summary of the method: as §1

Man(a1-3)[Man(a1-6)]Man = target: Man(a1-3)[Man(a1-6)]Man
Summary of the method: as §1

[7] = target: Man(a1-3)[Man(a1-6)]Man(a1-6)[Man(a1-2)Man(a1-3)]Man(b1-4)GlcNAc(b1-4)GlcNAc
Summary of the method: as §1

[8] = target: Man(a1-3)[Man(a1-6)]Man(a1-6)[Man(a1-3)]Man
Summary of the method: as §1

[9] = target: Man(a1-3)[Man(a1-6)]Man(a1-6)[Man(a1-3)]Man(b1-4)GlcNAc(b1-4)GlcNAc
Summary of the method: as §1

[10] = target: Man(a1-3)[Man(a1-6)]Man(b1-4)GlcNAc(b1-4)GlcNAc
Summary of the method: as §1

[11] = target: Man(a1-3)[Man(a1-6)]Man(b1-4)GlcNAc(b1-4)[Fuc(a1-6)]GlcNAc
Summary of the method: as §1

Man(a1-6)Man = target: Man(a1-6)Man
Summary of the method: as §1

Man(b1-4)GlcNAc = target: Man(b1-4)GlcNAc
Summary of the method: as §1

MurNAc(b1-4)GlcNAc = target: MurNAc(b1-4)GlcNAc
Summary of the method: as §1

Neu5Ac(a2-3)Gal = target: Neu5Ac(a2-3)Gal
Summary of the method: as §1

[12] = target: Neu5Ac(a2-3)Gal(b1-3)GalNAc
Summary of the method: as §1

[13] = target: Neu5Ac(a2-3)Gal(b1-3)GalNAc(b1-3)Gal(a1-4)Gal(b1-4)Glc
Summary of the method: as §1

[14] = target: Neu5Ac(a2-3)Gal(b1-3)GalNAc(b1-4)[Neu5Ac(a2-3)]Gal(b1-4)Glc
Summary of the method: as §1

[15] = target: Neu5Ac(a2-3)Gal(b1-3)GalNAc(b1-4)[Neu5Ac(a2-8)Neu5Ac(a2-3)]Gal(b1-4)Glc
Summary of the method: as §1

[16] = target: Neu5Ac(a2-3)Gal(b1-3)GalNAc6S
Summary of the method: as §1

[17] = target: Neu5Ac(a2-3)Gal(b1-3)GlcNAc
Summary of the method: as §1

[18] = target: Neu5Ac(a2-3)Gal(b1-3)GlcNAc(b1-2)Man
Summary of the method: as §1

[19] = target: Neu5Ac(a2-3)Gal(b1-3)GlcNAc(b1-2)Man(a1-3)[GlcNAc(b1-4)][Neu5Ac(a2-3)Gal(b1-3)GlcNAc(b1-2)Man(a1-6)]Man(b1-4)GlcNAc(b1-4)GlcNAc
Summary of the method: as §1

[20] = target: Neu5Ac(a2-3)Gal(b1-3)GlcNAc(b1-2)Man(a1-3)[Neu5Ac(a2-3)Gal(b1-3)GlcNAc(b1-2)Man(a1-6)]Man(b1-4)GlcNAc(b1-4)GlcNAc
Summary of the method: as §1

[21] = target: Neu5Ac(a2-3)Gal(b1-3)GlcNAc(b1-3)Gal(b1-3)GlcNAc
Summary of the method: as §1

[22] = target: Neu5Ac(a2-3)Gal(b1-3)GlcNAc(b1-3)Gal(b1-4)GlcNAc
Summary of the method: as §1

[23] = target: Neu5Ac(a2-3)Gal(b1-3)GlcNAc(b1-3)GalNAc
Summary of the method: as §1

[24] = target: Neu5Ac(a2-3)Gal(b1-3)GlcNAc(b1-4)Gal(b1-4)Glc
Summary of the method: as §1

[25] = target: Neu5Ac(a2-3)Gal(b1-3)GlcNAc(b1-6)GalNAc
Summary of the method: as §1

[26] = target: Neu5Ac(a2-3)Gal(b1-3)GlcNAc6S
Summary of the method: as §1

[27] = target: Neu5Ac(a2-3)Gal(b1-3)[Fuc(a1-4)]GlcNAc
Summary of the method: as §1

[28] = target: Neu5Ac(a2-3)Gal(b1-3)[Fuc(a1-4)]GlcNAc(b1-3)Gal(b1-3)[Fuc(a1-4)]GlcNAc
Summary of the method: as §1

[29] = target: Neu5Ac(a2-3)Gal(b1-3)[Fuc(a1-4)]GlcNAc(b1-3)Gal(b1-4)[Fuc(a1-3)]GlcNAc
Summary of the method: as §1

[30] = target: Neu5Ac(a2-3)Gal(b1-3)[GlcNAc(b1-6)]GalNAc
Summary of the method: as §1

[31] = target: Neu5Ac(a2-3)Gal(b1-3)[Neu5Ac(a2-6)]GalNAc
Summary of the method: as §1

[32] = target: Neu5Ac(a2-3)Gal(b1-3)[Neu5Ac(a2-6)]GlcNAc(b1-3)[Fuc(a1-3)[Gal(b1-4)]GlcNAc(b1-6)]Gal(b1-4)Glc
Summary of the method: as §1

[33] = target: Neu5Ac(a2-3)Gal(b1-3)]Neu5Ac(a2-3)Gal(b1-4)]GlcNAc
Summary of the method: as §1

Neu5Ac(a2-3)Gal(b1-4)Glc = target: Neu5Ac(a2-3)Gal(b1-4)Glc
Summary of the method: as §1

[34] = target: Neu5Ac(a2-3)Gal(b1-4)GlcNAc
Summary of the method: as §1

[35] = target: Neu5Ac(a2-3)Gal(b1-4)GlcNAc(b1-2)Man
Summary of the method: as §1

[36] = target: Neu5Ac(a2-3)Gal(b1-4)GlcNAc(b1-2)Man(a1-3)[GlcNAc(b1-4)][Neu5Ac(a2-3)Gal(b1-4)GlcNAc(b1-2)Man(a1-6)]Man(b1-4)GlcNAc(b1-4)GlcNAc
Summary of the method: as §1

[37] = target: Neu5Ac(a2-3)Gal(b1-4)GlcNAc(b1-2)Man(a1-3)[Neu5Ac(a2-3)Gal(b1-4)GlcNAc(b1-2)Man(a1-6)]Man(b1-4)GlcNAc(b1-4)GlcNAc
Summary of the method: as §1

[38] = target: Neu5Ac(a2-3)Gal(b1-4)GlcNAc(b1-2)Man(a1-3)[Neu5Ac(a2-3)Gal(b1-4)GlcNAc(b1-2)Man(a1-6)]Man(b1-4)GlcNAc(b1-4)[Fuc(a1-6)]GlcNAc
Summary of the method: as §1

[39] = target: Neu5Ac(a2-3)Gal(b1-4)GlcNAc(b1-2)Man(a1-3)[Neu5Ac(a2-6)Gal(b1-4)GlcNAc(b1-2)Man(a1-6)]Man(b1-4)GlcNAc(b1-4)GlcNAc
Summary of the method: as §1

B1: VLRB.aGPA.23-GCN4-biotin (Petromyzon marinus) (protein)
chain: ACPSQCSCSGTEVNCAGKSLASVPAGIPTTTRVLYLNSNQITKLEPGVFDRLANLRELHLWGNQLVSLPPGVFDNLANLEKLWLNSNQLTSLPAGLFDRLVNLEHLGLCCMKLTELPSGAFDKLTRLKQLGLDQNQLKSIPDGAFARLPSLTHVWLHTNPWDCQCTDILYLSGWVAQHSSIVGEGWPWRHSPDSAKCSGTNTPVRAVTEASTSPSKCP
With B1 the “glycan array binding signal (z-score)” value [1] was -0.082, the “glycan array binding signal (z-score)” value [2] was -0.081 and the “glycan array binding signal (z-score)” value [3] was -0.043. For the same binder, the “glycan array binding signal (z-score)” value [4] was -0.072, the “glycan array binding signal (z-score)” value [5] was -0.081 and the “glycan array binding signal (z-score)” value [6] was -0.086. The “glycan array binding signal (z-score)” value (Man(a1-3)[Man(a1-6)]Man) was -0.082, the “glycan array binding signal (z-score)” value [7] was 0.041 and the “glycan array binding signal (z-score)” value [8] was -0.08. For the same binder, the “glycan array binding signal (z-score)” value [9] was -0.08, the “glycan array binding signal (z-score)” value [10] was -0.061 and the “glycan array binding signal (z-score)” value [11] was -0.074. For the same binder, the “glycan array binding signal (z-score)” value (Man(a1-6)Man) was -0.075, the “glycan array binding signal (z-score)” value (Man(b1-4)GlcNAc) was -0.078 and the “glycan array binding signal (z-score)” value (MurNAc(b1-4)GlcNAc) was -0.088. The “glycan array binding signal (z-score)” value (Neu5Ac(a2-3)Gal) was -0.084, the “glycan array binding signal (z-score)” value [12] was -0.08 and the “glycan array binding signal (z-score)” value [13] was -0.079. The “glycan array binding signal (z-score)” value [14] was -0.073, the “glycan array binding signal (z-score)” value [15] was -0.073 and the “glycan array binding signal (z-score)” value [16] was -0.082. The “glycan array binding signal (z-score)” value [17] was -0.063, the “glycan array binding signal (z-score)” value [18] was -0.081 and the “glycan array binding signal (z-score)” value [19] was -0.084. For the same binder, the “glycan array binding signal (z-score)” value [20] was -0.077, the “glycan array binding signal (z-score)” value [21] was -0.081 and the “glycan array binding signal (z-score)” value [22] was -0.087. The “glycan array binding signal (z-score)” value [23] was -0.08, the “glycan array binding signal (z-score)” value [24] was -0.079 and the “glycan array binding signal (z-score)” value [25] was -0.087. For the same binder, the “glycan array binding signal (z-score)” value [26] was -0.058, the “glycan array binding signal (z-score)” value [27] was -0.085 and the “glycan array binding signal (z-score)” value [28] was -0.079. For the same binder, the “glycan array binding signal (z-score)” value [29] was -0.077, the “glycan array binding signal (z-score)” value [30] was -0.083 and the “glycan array binding signal (z-score)” value [31] was -0.081. For the same binder, the “glycan array binding signal (z-score)” value [32] was -0.085, the “glycan array binding signal (z-score)” value [33] was -0.074 and the “glycan array binding signal (z-score)” value (Neu5Ac(a2-3)Gal(b1-4)Glc) was -0.057. For the same binder, the “glycan array binding signal (z-score)” value [34] was -0.085, the “glycan array binding signal (z-score)” value [35] was -0.068 and the “glycan array binding signal (z-score)” value [36] was -0.087. For the same binder, the “glycan array binding signal (z-score)” value [37] was -0.084, the “glycan array binding signal (z-score)” value [38] was -0.074 and the “glycan array binding signal (z-score)” value [39] was -0.086.
